According to the supplement of paper PMC11417369:
The other results are listed elsewhere or left out.

Tested on: PfSIP2 AP2 domain 1 (GST-tagged)
Experiment: gcPBM binding intensity (ln(normalized median fluorescence intensity)); higher = stronger DNA binding
In short: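 For binding intensity, the highest Masliner-normalised natural-log median intensity across replicate spots of either probe orientation was taken. Protein bound to the array was stained with Alexa488 anti-GST antibody and scanned at 488 nm. The protein, GST-tagged P. falciparum DNA-binding domains from E. coli at about 25 μg on average, had been applied for 1 h to an Agilent 4 × 180k array of primer-extended double-stranded 36-bp intergenic genomic probes and negative controls.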

In order of falling “gcPBM binding intensity (ln)” value:
1. TGTATATATTTGTGCACACCAAAGTTTGATTTTATT [CACACA_site1860]  10
2. AATCGATAAAATGTTGTGCACATATTTTTATATTTA [GTGCAC_site9651]  9.71
3. TTAAATTACTAATGTGCACACATACTAACGTTTAAA [CACACA_site3573]  9.21
4. ATATAAAATCAACAAAAAAAAAAAATATATATATAT [XGTACX_negctrl_site251]  9.03
5. ATGTTTTATAAAAGGCGTACACATATATTTAAGTAA [XGTACX_site6231]  8.36
6. TTATTCTAGTAGTGTGTGCGCATGGACAATGCAATA  8.32
7. ACTTTTTTAATGTTACGTACACATAAATAATAATTA [XGTACX_site8092]  7.64
8. TTGGATGATTAAGGGGGACACACGTTTATATATTTA [CACACA_site338]  7.61
9. TAATAATCCACAAGCACACACACACCCATATATATA [CACACA_site1267]  7.41
10. AAAACTATAATGAATAGTACATAAAAATGGATATAT [XGTACX_site6056]  7.38
11. TATATACACATGCGCACACACAAGTGGGAAATTTGG [CACACA_site6930]  7.33
12. ATATTTTATTTATATACACACACATATATATATTAT [CACACA_site8177]  7.3
13. GTTACACCAACAAACACACACACACCGACACCCAAA [CACACA_site5361]  7.24
14. TTTATTTATTTAATTACACACGAACATATAACCATT [CACACA_site7952]  7.24
15. AAATGTAAAATTTTATGTACATATATTTATATAATA [XGTACX_site3737]  7.22
16. ATATATTTTAATGATACACACAAGAAATAAAATTAC [CACACA_site5671]  7.18
17. TAAAAAAAAAAAAAAGTACACACTTATAAAATATTA [CACACA_site872]  7.17
18. TATCTTATTTTATCTCGTACATAAAATTAAAAAATT [XGTACX_site3636]  7.15
19. TTTTGTGATCTTACCACCTTTCATAATATTAATAAA [GTGCAC_negctrl_site360]  7.12
20. ATTTATAATATGTATACACACACATATATAAATATA [CACACA_site8729]  7.12
21. CTTTATATAAAATAAAGTACATAAATTATGATATAT [XGTACX_site3699]  7.11
22. TTAACCTTTATATAATACGTATCATCCTCATATATA [CACACA_negctrl_site86]  7.1
23. CATTTTATTTTAATATGTACTTAAAGAAAAAAAATT [XGTACX_site7670]  7.1
24. ATATATAATATATGATGTACTTAATAATTTTTTTTT [XGTACX_site5715]  7.07
25. AATATTTGCCTATGTTGTACTGACATTTTTTTAAGT [XGTACX_site6836]  7.06
26. TTTTATTTATTATTTACACACACGTAGGTGTCCATA [CACACA_site430]  7.05
27. TTCTTTATATACAAACCAAAATATTATGTATAATAA [CACACA_negctrl_site15]  7.04
28. ACAAATGAGATTATATGTACACATAACAAATTTACA [XGTACX_site3496]  7.04
29. TTATACATATATTTAACACACATTTTATAAAGTGCC [CACACA_site1314]  7.02
30. ATACATATAATATATGCATGTACCAATCAAATATAT [TGCATGCA_site192]  7
31. TATATATCGTTATATACACACATGTATATAAAAAAT [CACACA_site7501]  6.98
32. AATATGTATCCATACACACATACATTTTATTTGCAA [CACACA_site874]  6.98
33. TTTTGACATTAATTACTATAGTGTTCTTATAAAATT [TGCATGCA_negctrl_site589]  6.97
34. TTTCACAAATGATATAGTACTTTTTATTATTAACAT [XGTACX_site7976]  6.95
35. TTATATTTTTTAATTACACACAATTCTTATAAATAT [CACACA_site7870]  6.94
36. ATAGAACAATTCAGAAGTACATAAAAAGAAAAATTT [XGTACX_site3015]  6.9
37. TAATTTTTTTTTATGATACACACTTGGATAATTAAA [CACACA_site562]  6.88
38. AATACATAAAAATAAAAATAAAATATAACTAATATG [CACACA_negctrl_site186]  6.87
39. ATATATTTTTTGAATACACACATATTATATGTAATA [CACACA_site1256]  6.87
40. TTAAGGATCCACGATACACACATATCATTCAACAAA [CACACA_site1924]  6.81
41. TTCATTCTATAAAACACACAAATATTTTTGTATCCC [CACACA_site6458]  6.8
42. AAATTGGGGCTTGTTACACACTTAGTGTGAGTTCTA [CACACA_site6417]  6.77
43. TTATTATATATTTTATTTATTAATAGTATATATTAT [TGCATGCA_negctrl_site155]  6.67
44. TATTATAACTAAAAAAATCACATAAAATACTTTATT [CACACA_negctrl_site2]  6.61
